Measurements from the supplement of paper PMC4967469.

Legend:
Experiment in all cases: Viability of human cancer cell lines after 72 h of drug (GDSC screen)
17-AAG = compound: C=CCNC1=C2C[C@@H](C)C[C@H](OC)[C@H](O)[C@@H](C)/C=C(\C)[C@H](OC(N)=O)[C@@H](OC)/C=C\C=C(/C)C(=O)NC(=CC1=O)C2=O [17-AAG]; details: top dose 1 µM
Description: (§1)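 Human cancer cell lines in 384-well plates, medium with 10% serum, drug for 72 h over a 256-fold dose range (nine 2-fold or five 4-fold steps up to the top dose). Adherent lines were fixed and stained with the nucleic acid dye Syto60, suspension lines read with resazurin; signal relative to control wells, capped at 0 and 100%. One two-parameter sigmoid per drug and line, fitted in a mixed model over all curves with the slope shared within a line.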

CCT018159 = compound: CCc1cc(-c2n[nH]c(C)c2-c2ccc3c(c2)OCCO3)c(O)cc1O [CCT018159]; details: top dose 10 µM; top dose inferred
Description: as §1

BIX02189 = compound: CN(C)Cc1cccc(N=C(c2ccccc2)c2c(O)[nH]c3cc(C(=O)N(C)C)ccc23)c1 [BIX02189]; details: top dose 20 µM; top dose inferred
Description: as §1

Dimethyloxalylglycine = compound: COC(=O)CNC(=O)C(=O)OC [Dimethyloxalylglycine]; details: top dose 4000 µM; top dose inferred
Description: as §1

Doxorubicin = compound: COc1cccc2c1C(=O)c1c(O)c3c(c(O)c1C2=O)C[C@@](O)(C(=O)CO)C[C@@H]3O[C@H]1C[C@H](N)[C@H](O)[C@H](C)O1 [Doxorubicin]; details: top dose 1.024 µM
Description: as §1

OSI-027 = compound: COc1cccc2cc(-c3nc([C@H]4CC[C@H](C(=O)O)CC4)n4ncnc(N)c34)[nH]c12 [OSI-027]; details: top dose 20 µM
Description: as §1

Vismodegib = compound: CS(=O)(=O)c1ccc(C(=O)Nc2ccc(Cl)c(-c3ccccn3)c2)c(Cl)c1 [Vismodegib]; details: top dose 10 µM; top dose inferred
Description: as §1

VX-11e = compound: Cc1cnc(Nc2ccc(F)cc2Cl)nc1-c1c[nH]c(C(=O)N[C@H](CO)c2cccc(Cl)c2)c1 [VX-11e]; details: top dose 5.12 µM; top dose inferred
Description: as §1

TG101348 = compound: Cc1cnc(Nc2ccc(OCCN3CCCC3)cc2)nc1Nc1cccc(S(=O)(=O)NC(C)(C)C)c1 [TG101348]; details: top dose 10.24 µM
Description: as §1

UNC1215 = compound: O=C(c1ccc(C(=O)N2CCC(N3CCCC3)CC2)c(Nc2ccccc2)c1)N1CCC(N2CCCC2)CC1 [UNC1215]; details: top dose 1 µM; top dose inferred
Description: as §1

| Cell Line | AUC (17-AAG) | IC50 (17-AAG) | AUC (CCT018159) | IC50 (CCT018159) | AUC (BIX02189) | IC50 (BIX02189) | AUC (Dimethyloxalylglycine) | IC50 (Dimethyloxalylglycine) | AUC (Doxorubicin) | IC50 (Doxorubicin) | AUC (OSI-027) | IC50 (OSI-027) | AUC (Vismodegib) | IC50 (Vismodegib) | AUC (VX-11e) | IC50 (VX-11e) | AUC (TG101348) | IC50 (TG101348) | AUC (UNC1215) | IC50 (UNC1215) |
| --- | --- | --- | --- | --- | --- | --- | --- | --- | --- | --- | --- | --- | --- | --- | --- | --- | --- | --- | --- | --- |
| LU-65 (large cell lung carcinoma, suspension) | 0.987 | > 1000 nM | 0.984 | > 10 µM | 0.933 | > 20 µM | 0.793 | 2200 µM | 0.76 | 421 nM | 0.716 | 5.78 µM | 0.987 | > 10 µM | 0.797 | 2.93 µM | 0.846 | 9.63 µM | 0.983 | > 1000 nM |
| LU-134-A (small cell lung carcinoma, suspension) | 0.636 | 152 nM | 0.907 | > 10 µM | 0.987 | > 20 µM | 0.874 | > 4000 µM | 0.532 | 78.6 nM | 0.804 | 10.8 µM | 0.975 | > 10 µM | 0.986 | > 5.12 µM | 0.825 | 6.7 µM | 0.976 | > 1000 nM |
| LU-135 (small cell lung carcinoma, suspension) | 0.752 | 283 nM | 0.88 | 7.37 µM | 0.966 | > 20 µM | 0.41 | 148 µM | 0.288 | 18.3 nM | 0.434 | 0.855 µM | 0.942 | > 10 µM | 0.975 | > 5.12 µM | 0.617 | 1.26 µM | 0.988 | > 1000 nM |
| LU-139 (small cell lung carcinoma, suspension) | 0.877 | > 1000 nM | 0.88 | > 10 µM | 0.935 | > 20 µM | 0.454 | 181 µM | 0.737 | 376 nM | 0.157 | < 0.0781 µM | 0.977 | > 10 µM | 0.954 | > 5.12 µM | 0.735 | 3.69 µM | 0.98 | > 1000 nM |
| LU-165 (small cell lung carcinoma, suspension) | 0.987 | > 1000 nM | 0.987 | > 10 µM | 0.941 | > 20 µM | 0.665 | 765 µM | 0.815 | 652 nM | 0.855 | 19.2 µM | 0.988 | > 10 µM | 0.987 | > 5.12 µM | 0.961 | > 10.2 µM | 0.941 | > 1000 nM |
| MC116 (B-cell lymphoma, suspension) | 0.999 | > 1000 nM | 0.999 | > 10 µM | 0.987 | > 20 µM | 0.448 | 187 µM | 0.852 | 456 nM | 0.285 | 0.38 µM | 0.999 | > 10 µM | 0.979 | > 5.12 µM | 0.929 | 7.33 µM | 0.997 | > 1000 nM |

IC50 is the fitted dose that halves viability relative to control wells, and lower means more sensitive; fits outside the tested doses are given as limits. AUC, from the same fit, is the share of area under the viability curve across the 256-fold dose range; it is 1 without any effect and falls as sensitivity rises. For part of these data: The top dose, if marked as inferred, was derived from the fitted curves, not read from the paper.
